This sample is rich in variants without activity.
B1: TPR 5TU (parent)
chain: GGAUCUUCUCGAUCUAACAAAAAAGACAAAUCUGCCACAAAGCUUGAGAGCAUCUUCGGAUGCAGAGGCGGCAGCCUUCGGUGGCGCGAUAGCGCCAACGUUCUCAACUAUGACACGCAAAACGCGUGCUCCGUUGAAUGGAGUUUAUCAUG

Variants of: B1
Test: polymerase ribozyme fitness, log enrichment relative to wild type (log ratio); higher = more active; in vitro selection for triplet polymerase activity
Outline: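 Streptavidin-bead capture of gel-excised extended constructs, followed by RT-PCR, closed a single triplicate in vitro selection round. That round began by annealing PCR-built, transcribed mutant libraries of each subunit of a heterodimeric triplet polymerase ribozyme with a biotinylated primer, the partner subunit and triplets, then incubating them frozen at −7 °C. After Illumina sequencing of inputs and outputs, genotypes needed ≥10 input reads and ≥1 read per output. Fitness is the base-2 logarithm of genotype enrichment over wild-type enrichment, using inverse-variance-weighted replicate averages.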
For U9C U15G G34A G50A C93U C125U, the “polymerase ribozyme fitness (log ratio)” value was no more than -4.2. In the case of U9C U55A C85U, the “polymerase ribozyme fitness (log ratio)” value is reported as no more than -4.2. For U9C U55G, the “polymerase ribozyme fitness (log ratio)” value was -3.53. With U9C U56A C76A C108G G143U A150G the “polymerase ribozyme fitness (log ratio)” value was no more than -4.2. With U9G A16C G80C G128U the “polymerase ribozyme fitness (log ratio)” value was no more than -4.2. For U9G A19C C27A G42U C85U C87U C96A C108G G128U, the “polymerase ribozyme fitness (log ratio)” value was no more than -4.2. For U9G A19C U55A, the “polymerase ribozyme fitness (log ratio)” value was no more than -4.2. In the case of U9G A19U G83A A107G A115G G141A, the “polymerase ribozyme fitness (log ratio)” value is reported as no more than -4.2. In the case of U9G A20C A29U C35U A47C C54U U56A C96A U130G, the “polymerase ribozyme fitness (log ratio)” value is reported as no more than -4.2. In the case of U9G A20C G58C C96U, the “polymerase ribozyme fitness (log ratio)” value is reported as no more than -4.2. In the case of U9G A21C G34A G83U A138G A142C, the “polymerase ribozyme fitness (log ratio)” value is reported as no more than -4.2. In the case of U9G A23C C75U C87G C105G G140U, the “polymerase ribozyme fitness (log ratio)” value is reported as no more than -4.2. In the case of U9G A23C G58A U146A A150G, the “polymerase ribozyme fitness (log ratio)” value is reported as no more than -4.2. For U9G A29U U53G U55G C93A A137C, the “polymerase ribozyme fitness (log ratio)” value was no more than -4.2. In the case of U9G A30U A52C G58U G59A A98U U139A U146G, the “polymerase ribozyme fitness (log ratio)” value is reported as no more than -4.2. For U9G A30U G84U C85U, the “polymerase ribozyme fitness (log ratio)” value was no more than -4.2. With U9G A39C U55A A91G A120C G141A U144G the “polymerase ribozyme fitness (log ratio)” value was no more than -4.2. In the case of U9G A39U G68C C87G U109C, the “polymerase ribozyme fitness (log ratio)” value is reported as no more than -4.2. In the case of U9G A40C C85A G86A, the “polymerase ribozyme fitness (log ratio)” value is reported as no more than -4.2. With U9G A47C C57A A66C C87A A89U A120U A121U C123A C125U U144A the “polymerase ribozyme fitness (log ratio)” value was no more than -4.2. For U9G A47U U55G C76G U77A A91C G92A G112C, the “polymerase ribozyme fitness (log ratio)” value was no more than -4.2. For U9G A49C G68A C93U, the “polymerase ribozyme fitness (log ratio)” value was no more than -4.2. For U9G A49U C85U, the “polymerase ribozyme fitness (log ratio)” value was no more than -4.2. In the case of U9G A60G G74A, the “polymerase ribozyme fitness (log ratio)” value is reported as no more than -4.2. For U9G A66U C75G C85U G94A G143C, the “polymerase ribozyme fitness (log ratio)” value was no more than -4.2. With U9G A119G U145A the “polymerase ribozyme fitness (log ratio)” value was no more than -4.2. For U9G C10U A16G C35A C87U A89G, the “polymerase ribozyme fitness (log ratio)” value was no more than -4.2. With U9G C10U A37C C43U G68C C76G C93G G140U the “polymerase ribozyme fitness (log ratio)” value was no more than -4.2. In the case of U9G C14G C38U G50C A138C G141A, the “polymerase ribozyme fitness (log ratio)” value is reported as no more than -4.2. In the case of U9G C18U A20G G25U C75G U144C, the “polymerase ribozyme fitness (log ratio)” value is reported as no more than -4.2. In the case of U9G C27A C51U A73C C87U C95U C114G G141C U148G, the “polymerase ribozyme fitness (log ratio)” value is reported as no more than -4.2. For U9G C27U C35U U55A G74A G94A U104A U148A, the “polymerase ribozyme fitness (log ratio)” value was no more than -4.2. With U9G C35A G81A C85A G141C the “polymerase ribozyme fitness (log ratio)” value was no more than -4.2. For U9G C38A G62C G68C C76U C114U A120C G143A, the “polymerase ribozyme fitness (log ratio)” value was no more than -4.2. In the case of U9G C51U U56G C76U G88C, the “polymerase ribozyme fitness (log ratio)” value is reported as no more than -4.2. For U9G C54G G62A C75A G81C C93G C96A C103G C118U, the “polymerase ribozyme fitness (log ratio)” value was no more than -4.2. For U9G C79U C99U C103A C116G C125U, the “polymerase ribozyme fitness (log ratio)” value was no more than -4.2. In the case of U9G C85A C103A C118G U134A, the “polymerase ribozyme fitness (log ratio)” value is reported as no more than -4.2. For U9G C96U, the “polymerase ribozyme fitness (log ratio)” value was -3.76. For U9G G11A A16U G34C C36U A40U U56A G62U G94U A110U, the “polymerase ribozyme fitness (log ratio)” value was no more than -4.2. With U9G G11C C76A G92C U134C U139G A150G the “polymerase ribozyme fitness (log ratio)” value was no more than -4.2. With U9G G11U U55G C57A G94U A142G the “polymerase ribozyme fitness (log ratio)” value was no more than -4.2. In the case of U9G G25U G59A A60U G70U, the “polymerase ribozyme fitness (log ratio)” value is reported as no more than -4.2. In the case of U9G G46C C76A C85G U90G A121U, the “polymerase ribozyme fitness (log ratio)” value is reported as no more than -4.2. In the case of U9G G48C G62A U82A G84U, the “polymerase ribozyme fitness (log ratio)” value is reported as no more than -4.2. In the case of U9G G50A A142C, the “polymerase ribozyme fitness (log ratio)” value is reported as no more than -4.2. In the case of U9G G68A U139C, the “polymerase ribozyme fitness (log ratio)” value is reported as no more than -4.2. With U9G G74A G84A A107G the “polymerase ribozyme fitness (log ratio)” value was no more than -4.2. With U9G G74U C75U C93U A98U C105U C108G the “polymerase ribozyme fitness (log ratio)” value was no more than -4.2. In the case of U9G G83C C93G, the “polymerase ribozyme fitness (log ratio)” value is reported as no more than -4.2. In the case of U9G G83U G88C C123G U148G C149U, the “polymerase ribozyme fitness (log ratio)” value is reported as no more than -4.2. With U9G G86A A138G the “polymerase ribozyme fitness (log ratio)” value was no more than -4.2. For U9G G86U C125U, the “polymerase ribozyme fitness (log ratio)” value was no more than -4.2. With U9G G88A C125G the “polymerase ribozyme fitness (log ratio)” value was no more than -4.2. For U9G G88C C99A A119U, the “polymerase ribozyme fitness (log ratio)” value was no more than -4.2. For U9G U13A G50C G86C A121U G143A, the “polymerase ribozyme fitness (log ratio)” value was no more than -4.2. With U9G U31G G42U U53A G58C the “polymerase ribozyme fitness (log ratio)” value was no more than -4.2. In the case of U9G U44G G59C U148G, the “polymerase ribozyme fitness (log ratio)” value is reported as no more than -4.2. For U9G U45G C57G A73G U101A C123A C129G, the “polymerase ribozyme fitness (log ratio)” value was no more than -4.2. For U9G U53C G58A U148G, the “polymerase ribozyme fitness (log ratio)” value was no more than -4.2. With U9G U61A C75A G94A A110G G140C the “polymerase ribozyme fitness (log ratio)” value was no more than -4.2. With C10A A12G A22G U56A C85G the “polymerase ribozyme fitness (log ratio)” value was no more than -4.2. In the case of C10A A12G A73G U77A C93U, the “polymerase ribozyme fitness (log ratio)” value is reported as no more than -4.2. In the case of C10A A16C A49U A98U A107C C116A U145A, the “polymerase ribozyme fitness (log ratio)” value is reported as no more than -4.2. With C10A A16G C54U C85A C95U U135A the “polymerase ribozyme fitness (log ratio)” value was no more than -4.2. With C10A A16U A17C C76U G86A G88U A97G C103A A106U A142G the “polymerase ribozyme fitness (log ratio)” value was no more than -4.2. For C10A A17C A41C A52C U53A C54U A60G U61A, the “polymerase ribozyme fitness (log ratio)” value was no more than -4.2. With C10A A17C A49C C118U A137U C149U the “polymerase ribozyme fitness (log ratio)” value was no more than -4.2. For C10A A19C A28C U61A C85U U90A A98G U101C G124U, the “polymerase ribozyme fitness (log ratio)” value was no more than -4.2. With C10A A19C A29U C36U C57U G58A A66C G67C U82G G84U U109A the “polymerase ribozyme fitness (log ratio)” value was no more than -4.2. In the case of C10A A19U G50A U53G C72U C95U G133C G136U U148A, the “polymerase ribozyme fitness (log ratio)” value is reported as no more than -4.2. With C10A A21G U45A G59C C79U A91U C96U the “polymerase ribozyme fitness (log ratio)” value was no more than -4.2. In the case of C10A A22G G46A C54U C75G G83U C95A, the “polymerase ribozyme fitness (log ratio)” value is reported as no more than -4.2. With C10A A22U A24G A40C A52C C57U G70A C93U A147C the “polymerase ribozyme fitness (log ratio)” value was -4.05. In the case of C10A A23C G25C G92A A113U G133C G141U U146C, the “polymerase ribozyme fitness (log ratio)” value is reported as no more than -4.2. In the case of C10A A23U C35G C95G G128A, the “polymerase ribozyme fitness (log ratio)” value is reported as no more than -4.2. For C10A A24U A26U C35G C85U G140U, the “polymerase ribozyme fitness (log ratio)” value was no more than -4.2. For C10A A28U G58A C96U A122G G124C, the “polymerase ribozyme fitness (log ratio)” value was no more than -4.2. In the case of C10A A39C G68A U135C, the “polymerase ribozyme fitness (log ratio)” value is reported as no more than -4.2. For C10A A49C C57U G59A C69U G84A A98G, the “polymerase ribozyme fitness (log ratio)” value was no more than -4.2. For C10A A49C U55A G59A, the “polymerase ribozyme fitness (log ratio)” value was no more than -4.2. For C10A A49U G65U G67A U130C U135G G136A U144G, the “polymerase ribozyme fitness (log ratio)” value was no more than -4.2. For C10A A52U C57G G59C C103G U144A, the “polymerase ribozyme fitness (log ratio)” value was no more than -4.2.

Reference: the RNAGym collection of RNA variant scans (doi:10.1073/pnas.2313332121)
